Source: the RNAGym collection of RNA variant scans (doi:10.7554/elife.90254)
Read counts are not given, so values of variants with three or more changes are uncertain.

B1: LINE1-mini (parent)
chain: GGCAGAGCUCAACACAGCGUGGCAAAGUGGCUGUGGCUAGACUGCC

Variants of: B1
Test: self-cleavage, relative activity (ratio to wild type); higher = more cleavage; in vitro, sequencing; the parent is a self-cleaving ribozyme
In the case of GACAGAACUCAACACAGCAUCGCAAAGUGGCUGUGGCUAGGCUGCC [G2A G7A G19A G21C A41G], the self-cleavage is reported as 0.28.
For GACAGAGCUCAACACAGCCUGGCAAAGUCGCUGUGGCUAGACUGCC [G2A G19C G29C], the self-cleavage was 0.05.
GACAGAGCUCAACACAGCGUGGCAAACUGGCUGUGGCUAGUCUGCC [G2A G27C A41U] showed a self-cleavage of 0.06.
Work on GACAGAUCUCAACACAGCAUGGCAAAGUGGGUGUGGCUAGACUGCC [G2A G7U G19A C31G] yielded a self-cleavage of 0.66.
GACAGAUCUCAACACAGCGUGGCAAAGUGGAUGUGGCGAGACUGCA [G2A G7U C31A U38G C46A] showed a self-cleavage of 0.04.
In the case of GACAGAUAUCAACACAGCGUGGCAAAGUGGCUGUGGCUAGACUGCC [G2A G7U C8A], the self-cleavage is reported as 0.79.
Variant GACAGAUUUCAACACAGCGUGGCAAAGUGGCUGUGCCUAGACGGCC [G2A G7U C8U G36C U43G] has a self-cleavage of 0.3.
For GACAGACCUCAACACAGCGUGGCAAAGUCGCUGUGUCUACUCUGCC [G2A G7C G29C G36U G40C A41U], the self-cleavage was 0.03.
Variant GACAGAUCUCAACACAGUGUGACAAAGUGGCUGUGGCUAGACUGCC [G2A G7U C18U G22A] has a self-cleavage of 0.03.
Variant GACAGAGCUCAACACAGCAUGGCAAAGUGGCUGGGGUUAGACUGCC [G2A G19A U34G C37U] has a self-cleavage of 0.43.
Work on GACAGAGCUCAACACAGCGUGGCAAAGUGGCUGUGGCUAUACGUCC [G2A G40U U43G G44U] yielded a self-cleavage of 0.12.
GACAGAGCACAUCACAGCGUGGCAAAGUGUCUGUUGCUAGACUGCC [G2A U9A A12U G30U G35U] showed a self-cleavage of 0.06.
GACAGAGCUCAACACAGCGUGGCAAACUUGCUGUGGCUAGACUUCC [G2A G27C G29U G44U] gave a self-cleavage of 0.81.
In the case of GACAGAGCUCAACACAGCUUGGUAAAGUGGAUGUGGCUAGACUGCC [G2A G19U C23U C31A], the self-cleavage is reported as 0.03.
With GACAGAGCUCAACACAGCGUGGCAAAGUGGCUGUGGCUACACAGCC [G2A G40C U43A] the self-cleavage was 0.03.
In the case of GACAGAGCUCAACACAGCGUAGUAAAGUGGCUGUGGCUAGACUCCC [G2A G21A C23U G44C], the self-cleavage is reported as 1.46.
In the case of GACAGAGCUCAACACAGCGUGGCAAAUUGGCCGUGGCUAGACUGCC [G2A G27U U32C], the self-cleavage is reported as 0.26.
With GACAGAGCUCAACACAGCGUGGCAAAGUUGCUGUGGCUUGACUGCC [G2A G29U A39U] the self-cleavage was 0.73.
Variant GACAGAGCUCAACACAGCGUGGCAAAGUUGCUGUGGCUGGACUGCC [G2A G29U A39G] has a self-cleavage of 0.39.
Work on GACAGAGCUCAACACAGCGUGUCAAAGUGGCUGACGCUAGACUGCC [G2A G22U U34A G35C] yielded a self-cleavage of 0.12.
Work on GACAGAGCUCAACACACCGUGGCUUAGUGGCUGUGGCUAGACUGCC [G2A G17C A24U A25U] yielded a self-cleavage of 0.53.
Work on GACAGAGCUCAACACAGCGUGGCAAAUUGGCUGUGGCUAGACUGUC [G2A G27U C45U] yielded a self-cleavage of 1.82.
Work on GACAGAGCUCAACACAGCGUGGCAAACUGGCUGUGGCUCGACUGCU [G2A G27C A39C C46U] yielded a self-cleavage of 0.27.
In the case of GACAGAGCUCAACACAGCGUGGCAAAGUGCUUGUUGCUAGACUGCC [G2A G30C C31U G35U], the self-cleavage is reported as 0.14.
With GACAGAGCUCAACACAGCAUGGCACAGUGGCUGUGGCUAGACUGCC [G2A G19A A25C] the self-cleavage was 0.37.
Work on GACAGAGCUCAACACAGCGUGGCAAAGUCGCUGGGGCUAGACUGCC [G2A G29C U34G] yielded a self-cleavage of 0.08.
Work on GACAGAUCUCAAGACAGCGUGGCAAAGUGGCUGUGGCAAGACUGCC [G2A G7U C13G U38A] yielded a self-cleavage of 0.13.
GACAGAUCUCAACACAGCGGGGCAAAGUCGGUGUGGCUAAACUGCC [G2A G7U U20G G29C C31G G40A] gave a self-cleavage of 0.08.
GACAGAAAUCAAUAGAGAGUGGCAAAGUGGCUGUGGCUAGACUGCC [G2A G7A C8A C13U C15G C18A] gave a self-cleavage of 0.35.
With GACAGAGCUCAACACAGCGUGGCAAAGUGGCUGUGUCUAGACUGGC [G2A G36U C45G] the self-cleavage was 0.21.
GACAGAGCUCAACACAGCGUGGCAAAGUUGCUUUGGCUAGACUGCC [G2A G29U G33U] gave a self-cleavage of 0.13.
GACAGAUCUCAACACAGCCUGACAAAGUGGCUGUGGCUAGACUGCC [G2A G7U G19C G22A] showed a self-cleavage of 0.06.
With GACAGAGCUCAACACAGCUUGGAAAAGUGGCUGGGGUUAGAGUGCC [G2A G19U C23A U34G C37U C42G] the self-cleavage was 0.02.
Work on GACAGAACUCAACACAGCGUGGCAAAGAGGCUGUGGCUAGACUGGC [G2A G7A U28A C45G] yielded a self-cleavage of 0.47.
Variant GACAGAGCUCAACACAGCCCGGCAAAGUGGCGCUGGCUAGAAUGCC [G2A G19C U20C U32G G33C C42A] has a self-cleavage of 0.07.
Variant GACAGAGCUCAACACAGCGUGGCAAAAUGGCUGUUGGUAGACAGCC [G2A G27A G35U C37G U43A] has a self-cleavage of 0.08.
With GACAGAGCUCAACACAGCGUGUCAAAGUGGCUCUGGCUAGAUUGAC [G2A G22U G33C C42U C45A] the self-cleavage was 0.1.
Variant GACAGAGCUCAACACAACGUGGCAAAGUGACUGUGGCUAGACUGCC [G2A G17A G30A] has a self-cleavage of 0.19.
With GACAGAGCUCAACACACCGUGGCAAAGUGGCUGUGGCUAGGCUGCC [G2A G17C A41G] the self-cleavage was 0.35.
GACAGACCACAACAUAGCGUGACAAAGUGGCUGUGGCUAGACUGAC [G2A G7C U9A C15U G22A C45A] gave a self-cleavage of 0.02.
In the case of GACAGACCUCUACGCAGCGUGGCAAAGUGGCUGUGGCUAGACUGCC [G2A G7C A11U A14G], the self-cleavage is reported as 0.03.
GACAGAGCUCAACACAGCGUGGCAAAGUAGCUGUGGCUAGACUACC [G2A G29A G44A] showed a self-cleavage of 1.27.
Variant GACAGAACUCAACACAGCGUGGCAACGUGGCUGUGGCUAGAUUGCC [G2A G7A A26C C42U] has a self-cleavage of 0.2.
Variant GACAGAGCUCAACACAGCGUGGCAAAGUGGCUAUGGCUAGACCGCC [G2A G33A U43C] has a self-cleavage of 0.21.
For GACAGACCUCAACACAGCGUUGCAAAGUGGAUGUGGCUAGACUGCC [G2A G7C G21U C31A], the self-cleavage was 0.
GACAGAACACAACACAGCGUGGCAAACUCGCCGUGGCUAGACUGCC [G2A G7A U9A G27C G29C U32C] showed a self-cleavage of 0.31.
GACAGACCUCAACACAGCGUGGCAACGUGGCUGUCGCUAGACUGCU [G2A G7C A26C G35C C46U] showed a self-cleavage of 0.21.
Variant GACAGAGCUCAACACAGCGUGGCAAAUUGGCUGUGGCUAGACUCCC [G2A G27U G44C] has a self-cleavage of 0.32.
Work on GACAGAGCUCAACACAGCGUGGCAAAGUGGCUGUGACUAGACUGCU [G2A G36A C46U] yielded a self-cleavage of 0.12.
GACAGAGCUCAACACAGCGUGCCAAAUUGGUUGUAGCUAGACUGCC [G2A G22C G27U C31U G35A] gave a self-cleavage of 0.32.
Work on GACAGAGCUCAACACAGCAUUGCAAAGUGGCUGUGGCUAGACUGAC [G2A G19A G21U C45A] yielded a self-cleavage of 2.21.
Variant GACAGACCUCAACACAGAGUGGCAAAGUGGCUGUGGCUAGACUGCC [G2A G7C C18A] has a self-cleavage of 0.02.
With GACAGACCUCAACACACCGUGGCAAAGUGGCUAUGGGUAGAGUGCC [G2A G7C G17C G33A C37G C42G] the self-cleavage was 0.05.
GACAGAGCUCAACACAGCGUAGCUAAGUGUCUGUGGCUAGACUGCU [G2A G21A A24U G30U C46U] showed a self-cleavage of 0.13.
GACAGAGCUCAACACAGCGUGGCAAAGUGUCUCGGGAUAGACUGCC [G2A G30U G33C U34G C37A] showed a self-cleavage of 0.02.
For GACAGAGCUCAACACAGCGUGGCAAAGUGGCUGUGACUGGAUUGCC [G2A G36A A39G C42U], the self-cleavage was 0.16.
